Data: the supplement of paper PMC10369915
This is one part of the list. No stated cut-off is given here; in the data, active = 3.2 or more and inactive = the rest. Most of these values are background signal.

Assays:
Assay in all cases: enrichment score (SH2-bound / input frequency) (ratio); bacterial display of known human phosphotyrosine sites (pTyr-Var adds point mutants) read by sequencing; higher = stronger binding; tyrosines were phosphorylated by kinases first
Conditions in all cases: peptide library: pTyr-Var
SHP2 C-SH2 domain E139D = target: SHP2 C-SH2 domain E139D
[1] = target: SHP2 C-SH2 domain wild-type
SHP2 N-SH2 domain L43F = target: SHP2 N-SH2 domain L43F
SHP2 N-SH2 domain T42A = target: SHP2 N-SH2 domain T42A
SHP2 N-SH2 domain T52S = target: SHP2 N-SH2 domain T52S
[2] = target: SHP2 N-SH2 domain wild-type

Measured: enrichment score
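Further: displayed peptides selected on beads carrying the immobilized SH2 domain, with library peptides lacking any tyrosine serving as negative controls.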

ENRKFYMDLKE [PURA_Y156_YF]
inactive: SHP2 C-SH2 domain E139D 1.15 | [1] 0.927 | SHP2 N-SH2 domain L43F 0.932 | SHP2 N-SH2 domain T42A 0.821 | SHP2 N-SH2 domain T52S 1.07 | [2] 1.06

SKDQIYPMKLK [RANBP17_Y823]
inactive: SHP2 C-SH2 domain E139D 0.749 | [1] 0.633 | SHP2 N-SH2 domain L43F 0.683 | SHP2 N-SH2 domain T42A 0.744 | SHP2 N-SH2 domain T52S 0.687 | [2] 0.796

KDIENHIQDGK [RAD50_Y964_Y964H]
inactive: SHP2 C-SH2 domain E139D 0.389 | [1] 0.425 | SHP2 N-SH2 domain L43F 0.628 | SHP2 N-SH2 domain T42A 0.434 | SHP2 N-SH2 domain T52S 0.401 | [2] 0.455

PLGVLYKVKVF [PTS_Y128_V124L_YF]
inactive: SHP2 C-SH2 domain E139D 0.812 | [1] 1.18 | SHP2 N-SH2 domain L43F 1.05 | SHP2 N-SH2 domain T42A 1.25 | SHP2 N-SH2 domain T52S 0.581 | [2] 1.52

IVEFAYNDKAV [PUM3_Y259_I264V_YF]
inactive: SHP2 C-SH2 domain E139D 0.678 | [1] 0.598 | SHP2 N-SH2 domain L43F 1.12 | SHP2 N-SH2 domain T42A 0.612 | SHP2 N-SH2 domain T52S 0.922 | [2] 0.941

TFEPNYGTVKR [RAPGEF6_Y1447_Q1452R_YF]
inactive: SHP2 C-SH2 domain E139D 0.682 | [1] 0.706 | SHP2 N-SH2 domain L43F 0.598 | SHP2 N-SH2 domain T42A 0.485 | SHP2 N-SH2 domain T52S 0.613 | [2] 0.709

TFEPNYGTVKQ [RAPGEF6_Y1447_YF]
inactive: SHP2 C-SH2 domain E139D 0.396 | [1] 0.626 | SHP2 N-SH2 domain L43F 0.531 | SHP2 N-SH2 domain T42A 0.564 | SHP2 N-SH2 domain T52S 0.589 | [2] 0.567

ENRKYYMDLKE [PURA_Y156]
inactive: SHP2 C-SH2 domain E139D 0.777 | [1] 0.91 | SHP2 N-SH2 domain L43F 0.695 | SHP2 N-SH2 domain T42A 0.621 | SHP2 N-SH2 domain T52S 0.673 | [2] 0.832

TYEPNYGTVKQ [RAPGEF6_Y1447]
inactive: SHP2 C-SH2 domain E139D 0.552 | [1] 0.632 | SHP2 N-SH2 domain L43F 0.565 | SHP2 N-SH2 domain T42A 0.594 | SHP2 N-SH2 domain T52S 0.531 | [2] 0.649

ISRVLYPNDNF [PYGM_Y281]
inactive: SHP2 C-SH2 domain E139D 1.34 | [1] 1.04 | SHP2 N-SH2 domain L43F 1.22 | SHP2 N-SH2 domain T42A 0.996 | SHP2 N-SH2 domain T52S 1.26 | [2] 1.1

AASHRYDLGGL [QPRT_Y162]
inactive: SHP2 C-SH2 domain E139D 0.78 | [1] 0.794 | SHP2 N-SH2 domain L43F 0.787 | SHP2 N-SH2 domain T42A 0.624 | SHP2 N-SH2 domain T52S 0.752 | [2] 0.85

QRDSSYYWEIE [RAF1_Y340]
inactive: SHP2 C-SH2 domain E139D 0.942 | [1] 1.01 | SHP2 N-SH2 domain L43F 0.991 | SHP2 N-SH2 domain T42A 1.09 | SHP2 N-SH2 domain T52S 1.11 | [2] 1.35

TTPYNYSYIFK [RAB14_Y8_A4T]
inactive: SHP2 C-SH2 domain E139D 0.785 | [1] 1.37 | SHP2 N-SH2 domain L43F 0.981 | SHP2 N-SH2 domain T42A 2.61 | SHP2 N-SH2 domain T52S 0.833 | [2] 0.756

SLMNQYVNKKF [RAB7A_Y28]
inactive: SHP2 C-SH2 domain E139D 0.708 | [1] 0.596 | SHP2 N-SH2 domain L43F 0.565 | SHP2 N-SH2 domain T42A 0.473 | SHP2 N-SH2 domain T52S 0.627 | [2] 0.699

HRAVEYLLTGI [RAD23A_Y197]
inactive: SHP2 C-SH2 domain E139D 1.41 | [1] 1.06 | SHP2 N-SH2 domain L43F 1.07 | SHP2 N-SH2 domain T42A 2.52 | SHP2 N-SH2 domain T52S 1.23 | [2] 0.863

AEMKRYSESSS [RAI14_Y869_A870S]
inactive: SHP2 C-SH2 domain E139D 0.631 | [1] 0.59 | SHP2 N-SH2 domain L43F 0.723 | SHP2 N-SH2 domain T42A 0.605 | SHP2 N-SH2 domain T52S 0.471 | [2] 0.644

KSIDEYLKLVG [RASAL2_Y381_E379D]
inactive: SHP2 C-SH2 domain E139D 1.02 | [1] 1.01 | SHP2 N-SH2 domain L43F 0.779 | SHP2 N-SH2 domain T42A 0.782 | SHP2 N-SH2 domain T52S 1.02 | [2] 0.62

RRVPVYGGRGA [QDPR_Y16_L14P]
inactive: SHP2 C-SH2 domain E139D 0.249 | [1] 0.28 | SHP2 N-SH2 domain L43F 0.346 | SHP2 N-SH2 domain T42A 0.281 | SHP2 N-SH2 domain T52S 0.338 | [2] 0.16

SSQHRYSTPHT [RAF1_Y232_A237T]
inactive: SHP2 C-SH2 domain E139D 0.754 | [1] 0.681 | SHP2 N-SH2 domain L43F 0.66 | SHP2 N-SH2 domain T42A 0.607 | SHP2 N-SH2 domain T52S 0.639 | [2] 0.904

RRVLVYGDRGA [QDPR_Y16_G18D]
inactive: SHP2 C-SH2 domain E139D 0.358 | [1] 0.235 | SHP2 N-SH2 domain L43F 0.309 | SHP2 N-SH2 domain T42A 0.339 | SHP2 N-SH2 domain T52S 0.291 | [2] 0.288

RQQEDYLLFKQ [RARRES1_Y159_YF]
inactive: SHP2 C-SH2 domain E139D 0.936 | [1] 0.774 | SHP2 N-SH2 domain L43F 0.884 | SHP2 N-SH2 domain T42A 0.544 | SHP2 N-SH2 domain T52S 0.693 | [2] 1.01

PVGVLYKVKVF [PTS_Y128_YF]
inactive: SHP2 C-SH2 domain E139D 1.45 | [1] 1.48 | SHP2 N-SH2 domain L43F 1.2 | SHP2 N-SH2 domain T42A 1.14 | SHP2 N-SH2 domain T52S 1.44 | [2] 1.46

RGESFYQDRMN [RARS_Y338]
inactive: SHP2 C-SH2 domain E139D 0.727 | [1] 1.08 | SHP2 N-SH2 domain L43F 0.813 | SHP2 N-SH2 domain T42A 0.78 | SHP2 N-SH2 domain T52S 0.516 | [2] 0.979

AGQEGYDRLRP [RAC1_Y64_D63G]
inactive: SHP2 C-SH2 domain E139D 0.556 | [1] 0.502 | SHP2 N-SH2 domain L43F 0.697 | SHP2 N-SH2 domain T42A 0.471 | SHP2 N-SH2 domain T52S 0.51 | [2] 0.666

IVEYAYNDKAV [PUM3_Y259_I264V]
inactive: SHP2 C-SH2 domain E139D 1.01 | [1] 0.889 | SHP2 N-SH2 domain L43F 0.772 | SHP2 N-SH2 domain T42A 0.749 | SHP2 N-SH2 domain T52S 0.825 | [2] 0.948

TAPFNYSFIFK [RAB14_Y8_YF]
inactive: SHP2 C-SH2 domain E139D 0.681 | [1] 0.82 | SHP2 N-SH2 domain L43F 0.575 | SHP2 N-SH2 domain T42A 1.21 | SHP2 N-SH2 domain T52S 1.09 | [2] 0.645

EFSNQYKATIG [RAB7A_Y37_K32E]
inactive: SHP2 C-SH2 domain E139D 0.929 | [1] 0.808 | SHP2 N-SH2 domain L43F 0.608 | SHP2 N-SH2 domain T42A 0.542 | SHP2 N-SH2 domain T52S 0.713 | [2] 0.811

HTLIKYTDGDQ [PUS7L_Y94]
inactive: SHP2 C-SH2 domain E139D 1.43 | [1] 1.31 | SHP2 N-SH2 domain L43F 1.41 | SHP2 N-SH2 domain T42A 0.701 | SHP2 N-SH2 domain T52S 1.09 | [2] 1.14

HTLMKYTDGDQ [PUS7L_Y94_I92M]
inactive: SHP2 C-SH2 domain E139D 0.81 | [1] 0.823 | SHP2 N-SH2 domain L43F 0.813 | SHP2 N-SH2 domain T42A 0.706 | SHP2 N-SH2 domain T52S 0.715 | [2] 1.02

SHISGYATLRR [RAPH1_Y1226]
inactive: SHP2 C-SH2 domain E139D 0.231 | [1] 0.353 | SHP2 N-SH2 domain L43F 0.24 | SHP2 N-SH2 domain T42A 0.21 | SHP2 N-SH2 domain T52S 0.249 | [2] 0.246

RQQEDYLLYKQ [RARRES1_Y159]
inactive: SHP2 C-SH2 domain E139D 1.13 | [1] 1.11 | SHP2 N-SH2 domain L43F 1 | SHP2 N-SH2 domain T42A 0.874 | SHP2 N-SH2 domain T52S 0.746 | [2] 1.14

IVEYAYNDKAI [PUM3_Y259]
inactive: SHP2 C-SH2 domain E139D 0.842 | [1] 0.973 | SHP2 N-SH2 domain L43F 1.01 | SHP2 N-SH2 domain T42A 1.02 | SHP2 N-SH2 domain T52S 0.909 | [2] 1.1

SFLFHYADDSF [RAB3C_Y50_R49H]
inactive: SHP2 C-SH2 domain E139D 1.91 | [1] 1.85 | SHP2 N-SH2 domain L43F 2.15 | SHP2 N-SH2 domain T42A 2.11 | SHP2 N-SH2 domain T52S 2.16 | [2] 2.09

TGILLYGLASR [QARS1_Y57]
inactive: SHP2 C-SH2 domain E139D 0.942 | [1] 0.857 | SHP2 N-SH2 domain L43F 0.79 | SHP2 N-SH2 domain T42A 0.567 | SHP2 N-SH2 domain T52S 0.881 | [2] 0.794

NRLNDYIFSFD [RARS1_Y516]
inactive: SHP2 C-SH2 domain E139D 1.28 | [1] 1.23 | SHP2 N-SH2 domain L43F 1.18 | SHP2 N-SH2 domain T42A 1.51 | SHP2 N-SH2 domain T52S 1.16 | [2] 1.31

NQLNDYIFSFD [RARS1_Y516_R512Q]
inactive: SHP2 C-SH2 domain E139D 1.01 | [1] 0.814 | SHP2 N-SH2 domain L43F 0.931 | SHP2 N-SH2 domain T42A 0.995 | SHP2 N-SH2 domain T52S 1.01 | [2] 0.992

SHISGYAALRR [RAPH1_Y1226_T1228A]
inactive: SHP2 C-SH2 domain E139D 0.244 | [1] 0.285 | SHP2 N-SH2 domain L43F 0.237 | SHP2 N-SH2 domain T42A 0.273 | SHP2 N-SH2 domain T52S 0.252 | [2] 0.211
